According to the supplement of paper PMC8183993:
Several values for one entry are separate records, joined by “and”; a condition that tells them apart may be missing. Equal values may be shown once. Where a name gives a salt, the structure may show the parent alone. ± gives the standard deviation of the averaged measurements. The full ranking holds about 3,200 compounds; the median of “nuclei count (viability) relative to DMSO” is about 99, and the lowest 2% start at about 16. The list shows a part of the results.

Test system: U2OS
Assay: nuclei count (viability) relative to DMSO (% of DMSO); higher = more viable cells
Conditions: 10 µM; 24 h
Procedure: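 Primary image-based screen in U2OS cells: compounds at 10 uM for 24 h, then a 1 h o-propargyl-puromycin (OPP) pulse, click labelling, and high-throughput microscopy. Mean cytoplasmic OPP intensity and nuclei count were normalised to DMSO wells within each plate (DMSO = 100) and averaged over triplicate plates.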

Compound | nuclei count
CSc1cc2c(cc1C(F)(F)F)N(C(=O)Nc1cccnc1)CC2 | 88.3
O=C(O)C(=O)O.[NH-][C@@H]1CCCC[C@H]1[NH-].[Pt+2] [Oxaliplatin] | 76.1
Cc1nn(-c2ccccc2)c(C)c1C=NN1CCN(Cc2ccccc2)CC1 | 83
CC(C)C(=O)Oc1ccc(CO)cc1[C@H](CCN(C(C)C)C(C)C)c1ccccc1 [Fesoterodine fumarate (Toviaz)] | 98.7
Cc1ccc(NC(=O)c2ccc(CN3CCN(C)CC3)cc2)cc1Nc1nccc(-c2cccnc2)n1 [Imatinib mesylate] | 93.1 ± 2.5
Cc1ccc(NC(=O)c2ccc(CN3CCN(C)CC3)cc2)cc1Nc1nccc(-c2cccnc2)n1 [Imatinib (STI571)] | 99.1
Cc1ccc(NC(=O)c2ccc(CN3CCN(C)CC3)cc2)cc1Nc1nccc(-c2cccnc2)n1 [Imatinib Mesylate] | 96.8
Cc1ccc(NC(=O)c2ccc(CN3CCN(C)CC3)cc2)cc1Nc1nccc(-c2cccnc2)n1 [Imatinib] | 101
Cc1cc2nc3c(=O)[nH]c(=O)nc-3n(C)c2cc1C=O | 51.4
C[C@]1(O)C[C@@H](c2nc(-c3ccc4ccc(-c5ccccc5)nc4c3)c3c(N)nccn32)C1 [Linsitinib (OSI-906)] | 91.1
C[C@]1(O)C[C@@H](c2nc(-c3ccc4ccc(-c5ccccc5)nc4c3)c3c(N)nccn32)C1 [OSI-906 (Linsitinib)] | 99
O=C(C1CCCCC1)N1CC(=O)N2CCc3ccccc3C2C1 (stereo not given) [Praziquantel] | 97.7
C[C@@H]1CCO[C@H]2Cn3cc(C(=O)NCc4ccc(F)cc4F)c(=O)c(O)c3C(=O)N12 | 99.8
C(=C\c1ccccc1)/CN1CCN(C(c2ccccc2)c2ccccc2)CC1 [Cinnarizine] | 107
COc1ccc2c(c1)c(CC(=O)O)c(C)n2C(=O)c1ccc(Cl)cc1 [Indomethacin] | 98.1 ± 10
Nc1nc2ccc(OC(F)(F)F)cc2s1 [Riluzole] | 101
Nc1nc2ccc(OC(F)(F)F)cc2s1 [Riluzole hydrochloride] | 95.29 ± 0.2
CN1CCC(=C2c3ccccc3CCc3cccnc32)CC1 [Azatadine dimaleate] | 109
CNC(=O)c1cc(Oc2ccc(NC(=O)Nc3cc(C(C)(C)C)nn3-c3ccc4ncccc4c3)c(F)c2)ccn1 [DCC-2036 (Rebastinib)] | 70.1
C/C=C1\C(=O)C[C@H]2[C@@H]3CCC4=CC(=O)CC[C@]4(C)[C@H]3CC[C@]12C [Z-Guggulsterone] | 101
C/C=C1\C(=O)C[C@H]2[C@@H]3CCC4=CC(=O)CC[C@]4(C)[C@H]3CC[C@]12C [Guggulsterone] | 90.2
CC(C)(C)NCC(O)COc1cccc2c1CCC(=O)N2 (stereo not given) [Carteolol hydrochloride] | 105
N#Cc1cc2c(OCC(O)CN3CCN(C(c4ccccc4)c4ccccc4)CC3)cccc2[nH]1 (stereo not given) | 90.9
C=C1c2c(Cl)ccc(O)c2C(=O)C2=C(O)[C@]3(O)C(=O)C(C(N)=O)=C(O)[C@@H](N(C)C)[C@@H]3[C@@H](O)[C@H]12.O=C(O)c1cc(S(=O)(=O)O)ccc1O [Meclocycline sulfosalicylate] | 105

Compound | nuclei count
CNC(=O)c1cc(Oc2ccc(NC(=O)Nc3ccc(Cl)c(C(F)(F)F)c3)c(F)c2)ccn1 [Regorafenib (BAY 73-4506)] | 92.1
CN(C)CCN(C)C(=O)c1ccc(NC(=O)Nc2ccc(-c3nc(N4CCOCC4)c4ccn(CC(F)(F)F)c4n3)cc2)cc1 | 68.3
CCOC(=O)O[C@]1(C(=O)COC(=O)CC)CC[C@H]2[C@@H]3CCC4=CC(=O)C=C[C@]4(C)[C@H]3[C@@H](O)C[C@@]21C [Prednicarbate] | 105
O=C(Nc1ccccc1-c1cn2c(CN3CCNCC3)csc2n1)c1cnc2ccccc2n1 | 12.2
COc1ccc2c(c1OC)C(=O)O[C@@H]2[C@H]1c2c(cc3c(c2OC)OCO3)CCN1C [Noscapine hydrochloride] | 95.6
CC(=O)NCCCS(=O)(=O)O [Acamprosate calcium] | 96.1
O=C(O)c1cc(/N=N/c2ccc(O)c(C(=O)O)c2)ccc1O [Olsalazine Sodium] | 98.2
O=C(CCc1ccc(O)cc1)c1c(O)cc(O)cc1O [Phloretin (Dihydronaringenin)] | 92.6
Cc1cn(CCN2CCN(c3ccccc3-c3cc(C#N)cc(C(=O)NCCCN4CCCC4)c3)CC2)c2ccccc12 | 22.8
CC(=O)C1=C(O)C=C2Oc3c(C(C)=O)c(O)c(C)c(O)c3[C@]2(C)C1=O [Usnic acid] | 103
CC[C@H](C)[C@H](N)C1=N[C@H](C(=O)N[C@@H](CC(C)C)C(=O)N[C@H](CCC(=O)O)C(=O)N[C@H](C(=O)N[C@H]2CCCCNC(=O)[C@H](CC(N)=O)NC(=O)[C@@H](CC(=O)O)NC(=O)[C@H](Cc3cnc[nH]3)NC(=O)[C@@H](Cc3ccccc3)NC(=O)[C@H]([C@@H](C)CC)NC(=O)[C@@H](CCCN)NC2=O)[C@@H](C)CC)CS1 [Bacitracin] | 104
OC(CNCC(O)C1CCc2cc(F)ccc2O1)C1CCc2cc(F)ccc2O1 (stereo not given) [Nebivolol hydrochloride] | 102
OC(CNCC(O)C1CCc2cc(F)ccc2O1)C1CCc2cc(F)ccc2O1 (stereo not given) [Nebivolol (Bystolic)] | 98.9
O=C(NCc1ccccc1)c1csc(Nc2ccncn2)n1 [Thiazovivin] | 97.7 ± 2.5
CC(C)NCC(O)COc1ccccc1-n1cccc1 (stereo not given) [Isamoltane hemifumarate] | 103
CNC[C@H](O)c1ccc(O)c(O)c1 [Epinephrine bitartrate (Adrenalinium)] | 110
CN1CCN(CCCN2c3ccccc3Sc3ccc(C(F)(F)F)cc32)CC1 [Trifluoperazine dihydrochloride] | 101
CNCc1ccc(-c2cc(-c3nc(-c4ccc(S(=O)(=O)C(C)C)cc4)cnc3N)on2)cc1 | 59.2
CN(C)CCN1C(=O)c2ccccc2N(C)c2ccccc21 [Dibenzepine hydrochloride] | 107
CC(S)C(=O)NCC(=O)O (stereo not given) [Tiopronin (Thiola)] | 104
COc1ccc(OC)c(C(O)CNC(=O)CN)c1 (stereo not given) [Midodrine hydrochloride] | 93
CN(C(=O)C(Cl)Cl)c1ccc(OC(=O)c2ccco2)cc1 [Diloxanide furoate] | 107
CCc1cc(Nc2nccc(-c3c(-c4ccc(OC)c(C(=O)Nc5c(F)cccc5F)c4)nc4ccccn34)n2)c(OC)cc1N1CCC(N2CCN(S(C)(=O)=O)CC2)CC1 | 96.9 ± 8.5
OC(CCCN1CCN(c2ncc(F)cn2)CC1)c1ccc(F)cc1 (stereo not given) | 104

Compound | nuclei count
Nc1ccn([C@H]2CC[C@@H](CO)O2)c(=O)n1 [Zalcitabine] | 97.9
C[C@@H](O)[C@H]1C(=O)N2C(C(=O)O)=C(S[C@@H]3CN[C@H](CNS(N)(=O)=O)C3)[C@H](C)[C@H]12 [Doripenem Hydrate] | 112
Oc1c(I)cc(Cl)c2cccnc12 [Clioquinol] | 101
CC(C)(C#N)c1cc(Cn2cncn2)cc(C(C)(C)C#N)c1 [Anastrozole] | 112
COc1cc2nccc(Oc3ccc(NC(=O)Nc4cc(C)on4)c(Cl)c3)c2cc1OC [Tivozanib (AV-951)] | 77.3
COC(=O)/C=C/c1cc(O)ccc1O [Methyl 2,5-dihydroxycinnamate] | 66.1
CN(C)CCOC(C)(c1ccccc1)c1ccccn1 (stereo not given) [Doxylamine succinate] | 102
CNC(=O)c1cccc(-c2ccc3c(N4CCOC[C@@H]4C)nc(N4CCOC[C@@H]4C)nc3n2)c1 | 76.7 ± 0.85
C=CCNC(N)=S [Allylthiourea] | 103
COc1cccc(-c2cc(=O)c3ccccc3o2)c1N | 96.5 and 107 and 98.2
CC(=O)c1ccc2c(c1)N(CCCN(C)C)c1ccccc1S2 [Acetopromazine maleate salt] | 101
Cc1cc(=O)[nH]c(=S)[nH]1 [Methylthiouracil] | 102
CC(=O)[C@H]1CC[C@H]2[C@@H]3C=CC4=CC(=O)CC[C@@]4(C)[C@@H]3CC[C@]12C [Dydrogesterone] | 103
Cc1cc(I)ccc1Nc1c(C(=O)NOCC2CC2)cc(F)c(F)c1F | 103
O=C(O)c1ccc(N2C(=O)C(=Cc3ccccc3)SC2=S)cc1 | 101
CC[C@]1(O)C[C@H]2CN(CCc3c([nH]c4ccccc34)[C@@](C(=O)OC)(c3cc4c(cc3OC)N(C=O)[C@H]3[C@@](O)(C(=O)OC)[C@H](OC(C)=O)[C@]5(CC)C=CCN6CC[C@]43[C@@H]65)C2)C1 [Vincristine] | 18.1
CC[C@]1(O)C[C@H]2CN(CCc3c([nH]c4ccccc34)[C@@](C(=O)OC)(c3cc4c(cc3OC)N(C=O)[C@H]3[C@@](O)(C(=O)OC)[C@H](OC(C)=O)[C@]5(CC)C=CCN6CC[C@]43[C@@H]65)C2)C1 [Vincristine sulfate] | 17.8
NC[C@@H]1O[C@H](O[C@H]2[C@@H](O)[C@H](O[C@@H]3[C@@H](O)[C@H](N)C[C@H](N)[C@H]3O[C@H]3O[C@H](CO)[C@@H](O)[C@H](O)[C@H]3N)O[C@@H]2CO)[C@H](N)[C@@H](O)[C@@H]1O [Paromomycin sulfate] | 104
Nc1nc(CC(=O)Nc2ccc(CCNC[C@H](O)c3ccccc3)cc2)cs1 [Mirabegron (YM178)] | 102
COc1ccccc1OCC(O)CO (stereo not given) [Guaifenesin] | 90.1
Cc1cccc(C)c1OCC(C)N (stereo not given) [Mexiletine hydrochloride] | 97.6 ± 3
COc1ccccc1N1CCN(CCCCN2C(=O)c3ccccc3C2=O)CC1 [NAN-190 hydrobromide] | 107
